Experimental data published in PubChem BioAssay AID588342 (National Center for Advancing Translational Sciences (NCATS), 2011).
Several values for one entry are separate records, joined by “and”; a condition that tells them apart may be missing. Equal entries are not always repeated. Hit rate of the full screen: of about 360,000 compounds, about 25,000 (6.9%) were called active. The inconclusive results got no clear call from the source; some entries with a clear call stand among them for comparison. The call rests on the fitted dose curve; in most records, active means well fitted inhibition curve with a large enough effect; inconclusive means small, poorly fitted or top-dose-only effect; inactive means flat fitted curve, though single readings scatter. A potency beside an inconclusive call is a rough fit, not a confirmed value.

molecular target: Luciferin 4-monooxygenase (Photinus pyralis) (UniProt P08659); experiment: qHTS profiling assay for firefly luciferase inhibitor/activator using purifed enzyme and Km concentrations of substrates (counterscreen for miR-21 project); conditions: purified FLuc, luminescence inhibition; activity change, negative = inhibition: at 57.5 µM (top of the series); further: nearly all actives have a fitted effect of over 55% in size;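 on activity change, negative = inhibition: plate controls were vehicle for no effect and reference inhibitor for full effect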
Chain of UniProt P08659 (P08659 whole entry, looked up): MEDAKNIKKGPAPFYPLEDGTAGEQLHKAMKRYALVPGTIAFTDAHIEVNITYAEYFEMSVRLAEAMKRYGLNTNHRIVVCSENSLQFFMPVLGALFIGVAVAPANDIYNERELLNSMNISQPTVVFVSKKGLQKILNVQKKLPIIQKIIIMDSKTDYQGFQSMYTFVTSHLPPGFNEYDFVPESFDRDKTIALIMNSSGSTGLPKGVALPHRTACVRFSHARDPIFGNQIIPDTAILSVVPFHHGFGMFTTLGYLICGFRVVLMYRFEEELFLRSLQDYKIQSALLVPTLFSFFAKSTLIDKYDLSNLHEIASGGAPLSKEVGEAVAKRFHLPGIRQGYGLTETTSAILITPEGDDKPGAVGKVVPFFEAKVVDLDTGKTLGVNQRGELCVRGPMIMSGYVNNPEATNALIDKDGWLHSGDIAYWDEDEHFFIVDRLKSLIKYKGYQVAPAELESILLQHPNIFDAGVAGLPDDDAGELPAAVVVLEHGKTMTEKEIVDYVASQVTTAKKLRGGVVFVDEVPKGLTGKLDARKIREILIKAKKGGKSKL
Procedure, shortened: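 Biochemical qHTS of compounds, final roughly 60 µM downward over six points, against 10 nM purified firefly luciferase using Km concentrations of substrates (10 uM D-luciferin, 10 uM ATP) in Tris acetate pH 7.5 buffer; luminescence output.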
Potency means the concentration at half of the fitted maximal effect; tags describe the fitted curve by direction and shape.

Question: How did the Potency turn out when COc1cccc(C(=O)Nc2ccc3c(c2)C(=O)NC3=O)c1 was run?
Answer: inconclusive: 13.5 µM [inhibitor, partial curve]

Question: How did the “activity change, negative = inhibition” value turn out when COc1ccc(NC(=O)c2ccc(-c3nc(COc4ccccc4)c(C)o3)cc2)cc1 was run?
Answer: inactive: -0.188%

Question: COc1ccc(-c2c3c(=O)n(C)c(=O)n(C)c3c3n2-c2ccccc2NC3c2ccccc2OC)cc1 (configuration not stated) was tested. Which “activity change, negative = inhibition” value did it give?
Answer: inactive: 0.167%

Question: How did the Potency turn out when Cc1ccc(C(=O)NCC(=O)OCCOc2ccccc2Cl)cc1 was run?
Answer: inconclusive: 23.9 µM [inhibitor, single point]

Question: Cc1ccc2nc(NCCC(=O)O)nc(-c3ccccc3)c2c1 was tested. Which Potency did it give?
Answer: inconclusive: 30.1 µM [inhibitor, single point]

Question: For COC(=O)c1ccc(NC(=O)c2cc3cc(C)ccc3n2C)cc1, which “activity change, negative = inhibition” value is on record?
Answer: inactive: -9.46%

Question: With CC1(C)Cc2nc3sc4c(SCC(=O)NC(c5ccccc5)c5ccccc5)ncnc4c3cc2CO1 as the compound, how does the Potency read?
Answer: inconclusive: 3.79 µM [inhibitor, partial curve]

Question: Which “activity change, negative = inhibition” value does the source give for CCc1ccc(CNC(=O)c2ccc(OC3CCN(C(C)=O)CC3)c(OC)c2)nc1 here?
Answer: inactive: 0.044%

Question: CC(C)c1ccc(NC(=O)CCCC(=O)NCCc2ccccc2)cc1 was tested. Which Potency did it give?
Answer: inconclusive: 23.9 µM [inhibitor, partial curve]

Question: With CC(=O)N1CCN(c2ccccc2NC(=O)c2cccc3c(Cl)cccc23)CC1 as the compound, how does the Potency read?
Answer: inconclusive: 33.8 µM [inhibitor, single point]

Question: How did the Potency turn out when FCCCOc1ccc(/C=N/OCc2c(Cl)cccc2Cl)cc1 was run?
Answer: inconclusive: 26.9 µM [inhibitor, single point]

Question: Which Potency does the source give for Nc1ccccc1C(=O)N/N=C1\C2CN3CCN(C2)CC1(c1ccccc1)C3 here?
Answer: inconclusive: 23.9 µM [inhibitor, partial curve]

Question: With COc1ccc(Nc2cc(C(=O)NCCCN(C)Cc3ccccc3)c3ccccc3n2)cc1OC as the compound, how does the Potency read?
Answer: inconclusive: 26.9 µM [inhibitor, partial curve]

Question: With COc1cccc(OCc2nc3ccccc3n2Cc2ccccc2)c1 as the compound, how does the Potency read?
Answer: inconclusive: 21.3 µM [inhibitor, partial curve]

Question: CCOC(=O)c1c(NC(=O)CSc2nnnn2-c2ccc(OC)cc2)sc(C)c1C was tested. Which Potency did it give?
Answer: inconclusive: 10.7 µM [inhibitor, partial curve, poor fit]

Question: How did the Potency turn out when CC1CC(C)CN(C(=O)c2ccc3c(c2NCCO)C(=O)c2ccccc2C3=O)C1 (configuration not stated) was run?
Answer: inconclusive: 37.9 µM [inhibitor, partial curve, poor fit]

Question: For COc1ccc(-n2nc3cc(C)c(NC(=O)COc4cccc(C)c4)cc3n2)cc1, which Potency is on record?
Answer: inconclusive: 21.3 µM [inhibitor, partial curve, poor fit]

Question: Cc1cc(/C=C(\C#N)C(=O)NCc2cccs2)c(C)n1-c1ccccc1F was tested. Which Potency did it give?
Answer: active: 2.13 µM

Question: How did the Potency turn out when CCC(C)C(=O)Nc1nc(C)c(-c2csc(Nc3ccccc3OC)n2)s1 (configuration not stated) was run?
Answer: inconclusive: 37.9 µM [inhibitor, partial curve, poor fit]

Question: How did the Potency turn out when COc1cccc(/C=N/n2cnc3cc(C)c(C)cc32)c1OC was run?
Answer: active: 12 µM

Question: With Cc1cc(C)c2c(=O)n(CC(=O)Nc3ccc(Cl)cc3)sc2n1 as the compound, how does the Potency read?
Answer: active: 7.57 µM

Question: For Fc1ccccc1Nc1nc2ccccc2o1, which Potency is on record?
Answer: active: 1.51 µM

Question: O=C(Nc1nc(-c2ccc(Cl)cc2Cl)cs1)C1CCCO1 (configuration not stated) was tested. Which Potency did it give?
Answer: inconclusive: 6.01 µM [inhibitor, single point]

Question: NC(=S)N/N=C1/CCSc2ccc3ccccc3c21 was tested. Which “activity change, negative = inhibition” value did it give?
Answer: inactive: 2.31%

Question: For COc1ccccc1CCNC(=O)c1cc2c(=O)n3cccc(C)c3nc2n1C, which “activity change, negative = inhibition” value is on record?
Answer: inactive: -5.58%

Question: With COc1ccc(/C(C)=N/OCC(=O)Nc2nc3ccccc3s2)cc1 as the compound, how does the Potency read?
Answer: inconclusive: 23.9 µM [inhibitor, partial curve, poor fit]

Question: Which Potency does the source give for O=C(NC(=S)NCCc1ccccc1)c1ccccc1F here?
Answer: inconclusive: 21.3 µM [inhibitor, single point]

Question: Which Potency does the source give for Cc1cccc(-c2cc(C(=O)Nc3c(C)n(C)n(-c4ccccc4)c3=O)c3ccccc3n2)c1 here?
Answer: inconclusive: 16.9 µM [inhibitor, partial curve]

Question: For COc1ccc2c(c1)Cc1sc(NC(=O)c3ccccc3)nc1-2, which Potency is on record?
Answer: inconclusive: 2.69 µM [inhibitor, full curve]

Question: With CCc1ccc(NC(=O)N2CC=C(c3c[nH]c4ccccc34)CC2)cc1 as the compound, how does the Potency read?
Answer: inconclusive: 21.3 µM [inhibitor, partial curve, poor fit]

Question: For Cc1ccc(-c2csc(NC(=O)CSC3=NCCS3)n2)cc1, which Potency is on record?
Answer: active: 13.5 µM

Question: With COc1cc(OC)c(NC(=O)C(C)n2c(=O)cc(-c3ccccc3)c3c(C)nn(C)c32)cc1Cl (configuration not stated) as the compound, how does the “activity change, negative = inhibition” value read?
Answer: inactive: -10%

Question: Which Potency does the source give for CNc1nc(N)c(C(=O)C23CC4CC(CC(C4)C2)C3)s1 here?
Answer: inconclusive: 23.9 µM [inhibitor, single point]

Question: With COc1ccc(CNC(=O)C2C3C=CC4(CN(Cc5cccnc5)C(=O)C24)O3)cc1 (configuration not stated) as the compound, how does the “activity change, negative = inhibition” value read?
Answer: inactive: 4.49%

Question: Cc1ccc(NC(=O)c2cc(F)c(F)cc2Cl)nc1 was tested. Which Potency did it give?
Answer: active: 8.49 µM

Question: For Cc1ccc(CNC(=O)C2CCN(c3nn4cc(-c5ccc(F)cc5)nc4s3)CC2)cc1, which “activity change, negative = inhibition” value is on record?
Answer: inactive: -0.502%

Question: For O=C(CNC(=O)c1cccc(F)c1)OCC(=O)N1CCCCC1, which Potency is on record?
Answer: inconclusive: 30.1 µM [inhibitor, single point]

Question: How did the “activity change, negative = inhibition” value turn out when Cc1csc(NC(=O)c2nc(-c3ccccc3)n(-c3ccccc3)n2)n1 was run?
Answer: inactive: -2.08%

Question: CCc1ccc(S(=O)(=O)/N=C2\C=C(Nc3ccc(O)cc3)C(=O)c3ccccc32)cc1 was tested. Which Potency did it give?
Answer: inconclusive: 23.9 µM [inhibitor, single point]

Question: COc1cccc(CN2CCCC(C(=O)N3CCCCC3)C2)c1 (configuration not stated) was tested. Which “activity change, negative = inhibition” value did it give?
Answer: inactive: 0.689%

Question: COc1cc(/C=N/NC(=O)c2cc3c(ccc4ccccc43)o2)cc(OC)c1O was tested. Which Potency did it give?
Answer: active: 4.78 µM

Question: Which Potency does the source give for COc1cccc(COC(=O)c2nn(-c3ccccc3)nc2N)c1 here?
Answer: inconclusive: 21.3 µM [inhibitor, partial curve, poor fit] and inconclusive: 21.3 µM [inhibitor, single point]

Question: CC(C)(CCl)C(=O)Nc1ccc(Sc2ccc(F)cc2)cc1 was tested. Which Potency did it give?
Answer: inconclusive: 30.1 µM [inhibitor, single point]

Question: Which Potency does the source give for CC1CCCC/C1=N\NC(=S)NCCc1ccccc1 (configuration not stated) here?
Answer: inconclusive: 26.9 µM [inhibitor, single point]

Question: How did the Potency turn out when O=C1OC(c2ccccc2)=C/C1=C\N1CCOCC1 was run?
Answer: inconclusive: 19 µM [inhibitor, partial curve]

Question: For CCCC(=O)Nc1nnc(/C=C/c2ccccc2)s1, which Potency is on record?
Answer: inconclusive: 6.75 µM [inhibitor, partial curve, poor fit]

Question: For COc1ccc(/C=N/NC(=O)c2cccc(Br)c2)cc1COc1ccccn1, which “activity change, negative = inhibition” value is on record?
Answer: inactive: -4.85%

Question: Which Potency does the source give for OC(CNc1ncnc2sccc12)c1ccccc1 (configuration not stated) here?
Answer: active: 16.9 µM

Question: How did the “activity change, negative = inhibition” value turn out when Oc1ccc(Br)cc1/C=N/Nc1ncc(-c2ccccc2)cn1 was run?
Answer: inactive: -3.51%

Question: For Cc1ccc2oc(=O)c3cc(C(=O)N4CCN(C(=O)c5ccco5)CC4)sc3c2c1, which Potency is on record?
Answer: inconclusive: 26.9 µM [inhibitor, partial curve, poor fit]

Question: Which “activity change, negative = inhibition” value does the source give for COC(=O)c1c(SC)nc2ccccc2c1OCc1cccc(C)c1 here?
Answer: inactive: -3.73%

Question: With Cc1ccc2c(c1)c1c(n2C)-c2[nH]ncc2CC1 as the compound, how does the Potency read?
Answer: active: 13.5 µM

Question: Which Potency does the source give for CCN(CCNC(=O)c1cccc(N2CCCC2=O)c1)c1ccccc1 here?
Answer: inconclusive: 26.9 µM [inhibitor, single point]

Question: Which Potency does the source give for COCCN(CCOC)c1ncnc2c1cnn2-c1ccc(Cl)cc1 here?
Answer: active: 15.1 µM

Question: Which Potency does the source give for O=C(c1cc2ccccc2[nH]1)N1CCOCC1 here?
Answer: inconclusive: 15.1 µM [inhibitor, partial curve]

Question: Which “activity change, negative = inhibition” value does the source give for COc1ccc([C@H]2CC(=O)C=C(c3cccc(OCc4ccccc4)c3)C2)cc1 here?
Answer: inactive: 1.02%

Question: How did the Potency turn out when c1ccc(COc2ccc3nocc3c2)cc1 was run?
Answer: active: 7.57 µM

Question: COc1ccc(C(=O)Nc2ccc(Cn3ccnc3)cc2)cc1OC was tested. Which Potency did it give?
Answer: inconclusive: 23.9 µM [inhibitor, single point]

Question: For C/C(=N\NC(=O)c1ccc(NS(=O)(=O)c2cccs2)cc1)c1ccc(O)cc1O, which Potency is on record?
Answer: inconclusive: 21.3 µM [inhibitor, single point]

Question: For COc1ccc(NCc2nc3ccccc3n2CCOc2ccccc2C)cc1, which Potency is on record?
Answer: inconclusive: 10.7 µM [inhibitor, partial curve]

Question: Which Potency does the source give for CCCCC(=O)N(Cc1ccc(-c2ccccc2-c2nn[nH]n2)cc1)[C@H](C(=O)O)C(C)C here?
Answer: inconclusive: 9.53 µM [inhibitor, partial curve]

Question: Which Potency does the source give for O=C(COC(=O)c1cc(Cl)ccc1O)Nc1ccc2c(c1)OCCO2 here?
Answer: inconclusive: 12 µM [inhibitor, partial curve, poor fit]

Question: Cc1nc(-c2ccc(NC(=O)c3ccco3)cc2)cs1 was tested. Which Potency did it give?
Answer: active: 0.0675 µM

Question: With S=C(Nc1ccc2c(c1)OCO2)Nc1ccc2c(c1)OCO2 as the compound, how does the Potency read?
Answer: inconclusive: 16.9 µM [inhibitor, partial curve]

Question: Which “activity change, negative = inhibition” value does the source give for CCc1nnc(NS(=O)(=O)c2ccc(NC(=S)NC(=O)/C=C/c3ccc(F)cc3)cc2)s1 here?
Answer: inactive: -0.783%

Question: CCCN(Cc1ccccc1)C(=S)Nc1ccc(SC(F)F)cc1 was tested. Which “activity change, negative = inhibition” value did it give?
Answer: inactive: -17.3%

Question: Which “activity change, negative = inhibition” value does the source give for COc1cccc(CNC(=O)C2CCC(CNS(=O)(=O)c3cccs3)CC2)c1 (configuration not stated) here?
Answer: inactive: -0.944%

Question: For Clc1ccc(-c2noc(/C=C/c3ccccc3)n2)cc1, which Potency is on record?
Answer: inconclusive: 6.75 µM [inhibitor, partial curve]

Question: With CC(C)(C)OC(=O)NNc1c2ccccc2nc2ccccc12 as the compound, how does the Potency read?
Answer: inconclusive: 26.9 µM [inhibitor, partial curve, poor fit]

Question: With Cc1cc(Nc2ccccc2)n(C(=O)c2ccc(N)cc2)n1 as the compound, how does the Potency read?
Answer: active: 9.53 µM

Question: With CN1CCN(C(=O)c2ccccc2NC(=O)c2ccc(C(C)(C)C)cc2)CC1 as the compound, how does the Potency read?
Answer: inconclusive: 30.1 µM [inhibitor, partial curve, poor fit]

Question: How did the Potency turn out when Cn1cc(S(=O)(=O)CC(=O)Nc2ccc3c(c2)OCCO3)c2ccccc21 was run?
Answer: inconclusive: 15.1 µM [inhibitor, partial curve, poor fit]
